About 230 (0.21%) of roughly 110,000 compounds showed an effect of 50% or more. Some of the results follow.
molecular target: DPAP1 (Plasmodium falciparum, UniProt Q8IIJ9); assay: primary screen, percent inhibition; read by cleavage of a fluorogenic dipeptide substrate; higher = more effect of the substance; parameters: species or system P. falciparum D10 trophozoite lysates; single well
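Also: 30 min substrate incubation versus DMSO and 10 µM JCP410 controls.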

Sequence of DPAP1 (Q8IIJ9 whole entry, looked up): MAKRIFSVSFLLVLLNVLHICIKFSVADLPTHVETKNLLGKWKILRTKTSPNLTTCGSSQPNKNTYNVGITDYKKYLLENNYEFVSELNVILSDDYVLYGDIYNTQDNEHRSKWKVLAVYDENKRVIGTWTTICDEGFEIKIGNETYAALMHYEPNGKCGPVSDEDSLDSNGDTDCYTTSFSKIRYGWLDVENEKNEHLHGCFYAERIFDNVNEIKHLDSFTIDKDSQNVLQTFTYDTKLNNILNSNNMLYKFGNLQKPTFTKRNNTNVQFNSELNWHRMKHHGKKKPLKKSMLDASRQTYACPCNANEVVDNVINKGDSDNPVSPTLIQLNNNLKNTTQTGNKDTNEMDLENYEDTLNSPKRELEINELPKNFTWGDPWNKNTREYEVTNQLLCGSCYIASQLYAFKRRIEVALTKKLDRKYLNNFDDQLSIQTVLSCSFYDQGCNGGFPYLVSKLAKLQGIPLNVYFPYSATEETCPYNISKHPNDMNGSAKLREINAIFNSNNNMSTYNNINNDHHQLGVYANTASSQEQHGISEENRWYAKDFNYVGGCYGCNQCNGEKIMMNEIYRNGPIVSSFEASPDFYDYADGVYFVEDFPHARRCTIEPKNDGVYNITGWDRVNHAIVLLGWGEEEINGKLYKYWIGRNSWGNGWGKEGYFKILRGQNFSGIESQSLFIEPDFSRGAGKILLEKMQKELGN

| Compound | % Inhibition @ 10 uM [%] |
| --- | --- |
| CNc1sc(S(C)(=O)=O)nc1S(=O)(=O)c1ccc(C)cc1 | -0.522 |
| NS(=O)(=O)c1ccc(CC/N=C/C2=C(O)c3ccccc3C2=O)cc1 | 7.73 |
| Cc1ccc(S(=O)(=O)N2CCSC2c2ccc(Cl)cc2)cc1 (stereo not shown) | 3.82 |
| Cc1cc(C)n(C(=O)c2sc3cc(F)ccc3c2Cl)n1 | 2.46 |
| Cc1sc2ncnc(SCC(=O)O)c2c1C | 0.708 |
| Cc1nc2scc(C)n2c(=O)c1S(=O)(=O)NC1CCCCCCC1 | 72.2 |
| COc1ccc(CC/N=c2\cc(O)oc3ccccc23)cc1OC | 0.189 |
| COC(=O)C1=C(C)N(CC2CCCO2)C(=O)/C1=C\c1ccc(C)cc1 (stereo not shown) | 1.81 |
| CC(C)(C)NCCCCOc1ccccc1 | 3.42 |
| CC(C)(C)c1ccc(/C=N/n2cnnc2)cc1 | -3.71 |
| Cc1n[nH]c(SCc2cccc(CSc3n[nH]c(C)n3)c2)n1 | 1.63 |
| CC(C)C[C@H](NC(=O)c1cccc(OC(F)F)c1)C(=O)NCC#N | -4.72 |
| COc1ccc(C(=O)Nc2ccc(Cl)cc2C(=O)NCc2cccnc2)cc1 | -8.16 |
| CCN(CC(=O)Nc1sc2c(c1C(=O)Nc1ccc(Br)cc1)CCC2)C(C)=O | 3.53 |
| CC(C)(C)OC(=O)Nc1cccc(C(=O)N[C@@H](CC2CCCCC2)C(=O)NCC#N)c1 | -3.49 |
| COc1ccc(N(CC(=O)Nc2ccccc2)S(C)(=O)=O)cc1Cl | -1.57 |
| CCCN(CCC)CCCNC(=O)CNC(=O)c1cccs1 | 2.05 |
| Cc1nc2sc3c(c2c2ncnn12)CCCC3 | -3.36 |
| Cc1cccc(NC(=O)c2cccc(Br)c2)c1 | 1.63 |
| COc1cc(NS(=O)(=O)c2ccc(NC(=O)Cc3ccccc3)cc2)nc(OC)n1 | -1.61 |
| S=C1Nc2ccccc2Sc2ccc(Cl)cc21 | 4.44 |
| CC1CCCCC1NC(=O)c1nn(C)c2c1CSc1ccccc1-2 (stereo not shown) | 4.86 |
| Oc1ccc(Br)cc1/C=C/c1nc(O)c2ccccc2n1 | 0.0265 |
| COc1ccc(C(=O)n2nc(-c3ccccc3)nc2NCc2ccccc2Cl)cc1OC | -2.91 |
| COC(=O)C1=CN(C)C=C(C(=O)OC)C1c1ccc(OCc2ccccc2)cc1 | 4.99 |

| Compound | % Inhibition @ 10 uM [%] |
| --- | --- |
| CCS(=O)(=O)c1nc(S(=O)(=O)c2ccc(C)cc2)c(NCCc2c[nH]c3ccccc23)s1 | 5.84 |
| CC1C(=O)C(C)C(c2ccccc2)NC1c1ccccc1 (stereo not shown) | 1.54 |
| Cc1ccccc1-c1cc(C(=O)Nc2ccc(C(N)=O)cc2)c2ccccc2n1 | 8.37 |
| COc1ccccc1CNS(=O)(=O)c1csc(C(N)=O)c1 | -0.822 |
| CCOc1ccccc1CNCc1c(C(=O)O)c(C)n(Cc2cccc(C)c2)c1C | -7.36 |
| O=C(NCc1cccc(CNC(=O)C(=O)NCc2ccco2)c1)C(=O)NCc1ccco1 | -0.48 |
| Cn1c(=O)c2c(-c3ccccc3)n(C(C)(C)C)cc2n(C)c1=O | 5.52 |
| N#CCNC(=O)C1(NC(=O)c2cccc(-c3ccccc3)c2)CCCCC1 | -6.46 |
| COc1ccc(C(=O)Nc2cccc(Br)c2)cc1S(=O)(=O)N1CCOCC1 | 2.43 |
| CCN(CC)CC#CC(C)(OC(C)=O)c1ccccc1 (stereo not shown) | 2.23 |
| COc1ccc2nc3sc(C(=O)NCc4ccccn4)cc3cc2c1 | 3.85 |
| Cc1cc(C)c2c3c(sc2n1)C(=O)N(Cc1ccccc1)CN3 | -0.808 |
| CCCCN(C)Cc1cc(O)ccc1[N+](=O)[O-] | -7.93 |
| COc1cc(-c2nn3c(Cn4nnc5ccccc54)nnc3s2)cc(OC)c1OC | 35.9 |
| O=C(CN1Cc2ccccc2C1=O)NCCc1ccc(Cl)cc1 | 3.62 |
| COc1ccc(C2C3=C(CCCC3=O)N=c3s/c(=C/c4ccc5ccncc5c4)c(=O)n32)cc1 (stereo not shown) | 2.03 |
| COc1ccc(OC)c(-c2cc(C(=O)NCc3ccco3)no2)c1 | -5.09 |
| CCCCCCCCOc1ccc(/C=C(\C#N)c2nc(-c3ccc(C)cc3C)cs2)cc1 | 1.08 |
| COc1ccc(CN2C(=O)c3oc4ccccc4c(=O)c3C2c2cccc(O)c2)cc1 (stereo not shown) | -6.94 |
| CC(C)CNc1nc2c(c(=O)n(Cc3ccccc3)c(=O)n2C)n1Cc1ccccc1 | 0.279 |
| COCCn1c(C)cc(C(=O)CSc2nc(C)cc(C)c2C#N)c1C | -4.6 |
| CC1(C)Cc2c(sc3[nH]c(=S)n(Cc4ccccc4)c(=O)c23)CO1 | 37.7 |
| Cc1ccc(S(=O)(=O)N(Cc2ccc(Cl)cc2)c2ccccc2C(=O)N2CCOCC2)cc1 | 4.88 |
| Cc1c2cnn(CC(=O)NCCc3ccc(Cl)cc3)c(=O)c2c(C)n1Cc1ccccc1 | 5.91 |
| CCC1CCc2c(sc(NC(=O)c3ccccc3C)c2C(N)=O)C1 (stereo not shown) | -3.12 |

| Compound | % Inhibition @ 10 uM [%] |
| --- | --- |
| CN(CCCNC(=O)C1CCCN(S(=O)(=O)c2cccc3nsnc23)C1)Cc1ccccc1 (stereo not shown) | -0.499 |
| CCCn1c2ccccc2c2cnn(CC(=O)N(CCCN3CCOCC3)Cc3ccco3)c(=O)c21 | 8.64 |
| CC(C)CCCN1C(=O)NC(=O)/C(=C\c2ccc(Cl)cc2Cl)C1=O | -5.96 |
| COC(=O)C1=C(C)N(CCC2=CCCCC2)C(=O)/C1=C\c1ccccc1Cl | 1.91 |
| CCCNC(=O)/C(=C/c1cn(CC)c2ccccc12)NC(=O)c1ccco1 | -1.74 |
| OCc1cn(Cc2ccccc2Cl)c2ccccc12 | 2.1 |
| CCCCOC(=O)NC(=O)c1coc2ccc(Br)cc2c1=O | -8.76 |
| COc1ccc(C2=C(C)C(NC(C)C34CC5CC(CC(C5)C3)C4)=NS2(=O)=O)cc1 (stereo not shown) | -2.85 |
| COc1cc2c(cc1OC)C(C(C)C)=NC(C)(C)C2 | -0.992 |
| Cc1ccc2onc(CNC(=O)N3CCOCC3)c2c1 | 0.292 |
| O=C(NCCO)c1ccc2snnc2c1 | -3.52 |
| CCCS(=O)(=O)c1c(S(=O)(=O)CCC)c2ccccn2c1C(=O)OC | -7.57 |
| O=C(Nc1ccn(Cc2ccccc2Cl)n1)C1CCC1 | -1.96 |
| Oc1nc2ccc(Oc3ccc4nc(O)c(O)nc4c3)cc2nc1O | -7.6 |
| Cc1ccc(/C(O)=C(\C#N)c2nc(O)c3ccccc3n2)cc1 | 15.8 |
| Cc1ccc(CCNC(=O)CCN2N=C(c3ccccc3)CCC2=O)cc1 | -0.0542 |
| N#Cc1c(Nc2ccccc2)sc(C(=O)c2ccc(F)cc2)c1N | -4.43 |
| CCOc1ccc(CSc2nnnn2-c2ccccc2F)cc1OCC | -4.35 |
| C=Cc1ccc(Cn2c(C(=O)OC)cc3sccc32)cc1 | -5.2 |
| CCc1nc2nc(C)c(NS(=O)(=O)c3ccc(CC(C)C)cc3)c(O)n2n1 | -4.47 |
| CCOc1cccc(NC(=O)C2CC(=O)N(c3ccc(F)cc3)C2)c1 (stereo not shown) | 11.1 |
| Cc1nnc2c(NC3CCN(Cc4ccccc4)CC3)nc3ccccc3n12 | -3.8 |
| COCCCNC1=NS(=O)(=O)C(c2ccc(C)cc2)=C1C | -4.68 |
| COc1ccc(/C=C2\CN(C)CC3=C2OC(N)=C(C#N)C3c2ccc(OC)c(OC)c2)cc1OC (stereo not shown) | 20.7 |
| O=C(COc1ccccc1Cl)Nc1cc(-c2ccccc2)no1 | 0.248 |

| Compound | % Inhibition @ 10 uM [%] |
| --- | --- |
| O=[N+]([O-])c1ccc(S(=O)(=O)N2CCN(Cc3ccccc3)CC2)cc1 | -0.687 |
| CCOC(=O)c1c(C)[nH]c(C)c1S(=O)(=O)Nc1cc(C)ccn1 | -1.24 |
| CCc1c(C)nc2sc(C(N)=O)c(N)c2c1C | 13.6 |
| CC(=O)Nc1ccc(S(=O)(=O)N2CCN(S(=O)(=O)c3ccccc3)CC2)cc1 | 0.24 |
| Cc1cc(OCC(=O)Nc2ccc(S(N)(=O)=O)cc2)ccc1Br | 0.727 |
| CN(Cc1ccco1)S(=O)(=O)c1ccc(CN2C(=O)c3cccnc3C2=O)cc1 | -4.08 |
| COc1cc(OC)c(OC)cc1CN1CCN(Cc2ccc(C)cc2)CC1 | 0.635 |
| CCOC(=O)c1c(NC(=O)c2ccccc2)sc(C(C)=O)c1C | -1.29 |
| Cc1ccc(C2(CC#N)CCOC(C)(C)C2)cc1 (stereo not shown) | 4.22 |
| Cc1cccc(CN(C)CCN(C)C)c1 | -2.18 |
| O=C(Nc1c(Cl)cccc1Cl)C(c1ccccc1)c1ccccc1 | 0.986 |
| COc1ccc(Nc2nc3nonc3nc2N2CCCCC2)cc1 | -1.64 |
| Cc1ccc(-c2cc3nc(-c4ccncc4)cc(C(F)(F)F)n3n2)cc1 | 0.627 |
| Cn1cccc1C=C1C(=O)c2ccccc2C1=O | 3.27 |
| CNC(=O)c1cc2c(=O)n3cc(C)ccc3nc2n(C2CCCCC2)c1=N | -1.47 |
| CCOc1cc(/C=C2/SC(=O)N(CC(=O)Nc3ccc(OC)cc3)C2=O)ccc1O | 21.2 |
| CCOc1ccc(C(=O)N2CCN(C(=O)c3ccc(OCC)cc3)CC2)cc1 | 4.37 |
| CN(C)C(=O)CSc1nc2ccccc2n1Cc1ccccc1 | 1.28 |
| COc1ccc(CNC(=O)C2CCN(c3ncnc4c3nc3n4CCCCC3)CC2)cc1 | 5.05 |
| COc1ccc(C2=N/C(=C\c3ccc(F)cc3)C(=O)O2)c(Cl)c1 | 3.58 |
| Cc1ccc(C2CC(=O)N3CN(Cc4cccnc4)CSC3=C2C#N)cc1 (stereo not shown) | 43.8 |
| S=C(Nc1ccc2nccnc2c1)N1CCOCC1 | -6.7 |
| COc1ccccc1N1CCN(CC(=O)Nc2cc(N(C)C)nc3ccccc23)CC1 | 3.01 |
| Cc1cc(C)c(NC2=NCCCS2)c(C)c1 | 2.27 |
| COc1ccc(Br)cc1CNCc1c(C(=O)O)n(Cc2ccc(F)cc2)c2ccccc12 | 0.896 |
